{"source": "the BET-seq Pho4 binding data (Le et al. 2018)", "note": "The other results are listed elsewhere or left out. Values were computed here from the reads of four pooled replicates and scatter widely."}
{"target": "T1, Pho4 (S. cerevisiae) (UniProt P07270)", "T1 sequence": "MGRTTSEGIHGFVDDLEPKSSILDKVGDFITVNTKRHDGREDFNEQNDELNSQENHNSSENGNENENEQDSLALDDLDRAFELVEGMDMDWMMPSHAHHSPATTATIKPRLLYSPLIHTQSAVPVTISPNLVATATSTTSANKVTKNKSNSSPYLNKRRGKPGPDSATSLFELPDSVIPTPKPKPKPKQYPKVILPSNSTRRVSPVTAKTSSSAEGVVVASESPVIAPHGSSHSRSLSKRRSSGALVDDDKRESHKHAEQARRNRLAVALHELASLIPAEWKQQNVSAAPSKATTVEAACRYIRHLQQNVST", "assay": "relative binding free energy (BET-seq); higher = weaker binding", "details": "reference: library average", "units": {"relative binding free energy": "kcal/mol"}}
{"sequence": "TGATGCACGTGCGGGC", "relative binding free energy": 0.07}
{"sequence": "TTTTTCACGTGCACTT", "relative binding free energy": 0.15}
{"sequence": "CGTGTCACGTGATGTA", "relative binding free energy": 0.15}
{"sequence": "TTGTACACGTGTATGG", "relative binding free energy": 0.11}
{"sequence": "TTGAGCACGTGGGGGT", "relative binding free energy": -0.18}
{"sequence": "GGAGGCACGTGTCAGT", "relative binding free energy": -0.12}
{"sequence": "CGTAGCACGTGTTTTG", "relative binding free energy": -0.14}
{"sequence": "ACAGGCACGTGAGATG", "relative binding free energy": 0.15}
{"sequence": "ATTAGCACGTGTTTCG", "relative binding free energy": -0.12}
{"sequence": "GAGTCCACGTGAGGGT", "relative binding free energy": 0.36}
{"sequence": "TCTTGCACGTGGATCG", "relative binding free energy": 0.06}
{"sequence": "GTGGGCACGTGCGGCT", "relative binding free energy": -0.15}
{"sequence": "CTGTTCACGTGGCGTT", "relative binding free energy": 0.22}
{"sequence": "CCGTTCACGTGGTTGT", "relative binding free energy": 0.2}
{"sequence": "GAGAGCACGTGGTGGT", "relative binding free energy": -0.13}
{"sequence": "TTTTTCACGTGATTGT", "relative binding free energy": 0.39}
{"sequence": "TTAGTCACGTGAGTGG", "relative binding free energy": 0.3}
{"sequence": "TTGTGCACGTGATCTA", "relative binding free energy": 0.01}
{"sequence": "ATGTGCACGTGGATAT", "relative binding free energy": -0.18}
{"sequence": "TGATTCACGTGTATGA", "relative binding free energy": 0.22}
{"sequence": "AAGGGCACGTGTTGAG", "relative binding free energy": -0.07}
{"sequence": "GAATGCACGTGATTTG", "relative binding free energy": 0.15}
{"sequence": "TGTACCACGTGTCTGG", "relative binding free energy": -0.11}
{"sequence": "AGACGCACGTGGTTGG", "relative binding free energy": -0.31}
{"sequence": "GATTTCACGTGGTGTG", "relative binding free energy": 0.21}
{"sequence": "TTGGGCACGTGGTTAT", "relative binding free energy": -0.11}
{"sequence": "GCGTGCACGTGTAGGT", "relative binding free energy": 0.02}
{"sequence": "CAAGGCACGTGCGGGA", "relative binding free energy": -0.08}
{"sequence": "ATGTGCACGTGTTATG", "relative binding free energy": -0.02}
{"sequence": "TGGCGCACGTGGTGAA", "relative binding free energy": -0.23}
{"sequence": "GTTATCACGTGGACTG", "relative binding free energy": 0.32}
{"sequence": "ATCTTCACGTGGTGTG", "relative binding free energy": 0.19}
{"sequence": "GTTTGCACGTGGTGTT", "relative binding free energy": -0.04}
{"sequence": "GGTAACACGTGTTGAC", "relative binding free energy": 0.21}
{"sequence": "TTATCCACGTGTTAGT", "relative binding free energy": 0.1}
{"sequence": "TCGTTCACGTGAAGGT", "relative binding free energy": 0.46}
{"sequence": "GACTGCACGTGTTATG", "relative binding free energy": 0.02}
{"sequence": "TAAAACACGTGTTGGG", "relative binding free energy": 0.16}
{"sequence": "GGTTGCACGTGCAGGA", "relative binding free energy": -0.02}
{"sequence": "TTATCCACGTGTGTTG", "relative binding free energy": -0.02}
{"sequence": "GTTTGCACGTGTCTCT", "relative binding free energy": 0.2}
{"sequence": "TTGTGCACGTGGTGCC", "relative binding free energy": -0.08}
{"sequence": "TGGTGCACGTGGTTGA", "relative binding free energy": 0.07}
{"sequence": "AGGCTCACGTGGTCGT", "relative binding free energy": 0.04}
{"sequence": "TGTATCACGTGGGCCT", "relative binding free energy": 0.14}
{"sequence": "AGACGCACGTGGGGCG", "relative binding free energy": -0.23}
{"sequence": "GCTTGCACGTGACGGT", "relative binding free energy": 0.16}
{"sequence": "TTTGTCACGTGGATAT", "relative binding free energy": 0.03}
{"sequence": "TAGGTCACGTGTGTGT", "relative binding free energy": 0.15}
{"sequence": "TTATCCACGTGAGGGA", "relative binding free energy": 0.19}
{"sequence": "TTGAGCACGTGGCGTG", "relative binding free energy": -0.13}
{"sequence": "TCCGGCACGTGTTTGG", "relative binding free energy": 0}
{"sequence": "ATGGTCACGTGGCGGG", "relative binding free energy": -0.11}
{"sequence": "TATGTCACGTGACTTG", "relative binding free energy": 0.03}
{"sequence": "TATGTCACGTGGCTAG", "relative binding free energy": -0.1}
{"sequence": "TGCGGCACGTGATGTT", "relative binding free energy": -0.06}
{"sequence": "GTGGTCACGTGATGTA", "relative binding free energy": 0.14}
{"sequence": "AGTGCCACGTGGGGAA", "relative binding free energy": -0.2}
{"sequence": "CGCGTCACGTGATGGG", "relative binding free energy": 0.11}
{"sequence": "GAGGCCACGTGTTGGC", "relative binding free energy": 0.18}
{"sequence": "GGTCGCACGTGCGGTT", "relative binding free energy": -0.04}
{"sequence": "TTGCGCACGTGGGGTG", "relative binding free energy": -0.21}
{"sequence": "TTAAGCACGTGTGTGA", "relative binding free energy": -0.13}
